PubChem BioAssay AID342 (DTP/NCI, 2004)
Some entries of the source have several records that differ or are many. They are shown here; other results are not. There may be further records. The records of an entry are repeated measurements across runs, samples, wells, individuals or studies.

Tested on: Swiss mice, Sarcoma 180 sc, mean tumor weight T/C
Experiment: NCI In Vivo Anticancer Drug Screen. Data for tumor model Sarcoma 180 (subcutaneous) in Swiss mice
Settings: endpoint: mean tumor weight, higher = larger tumour
Procedure: The antitumor activity of compounds was measured in mice bearing transplantable tumors. Survival or tumor size were measured and the results are expressed as the measurement made in the treated group (T) divided by the measurement made in the vehicle treated control group (C). The tumor model used in this assay is Sarcoma 180 (subcutaneous) in Swiss mice

SMILES: CN(C)c1ccc(C(C#N)C(C#N)c2ccccc2)cc1 (stereo unspecified)
- T/C (dose: 13.3 mg/kg/injection, schedule: Q#A X014 (ip), vehicle: methylcellulose (MC)): 53 % of control and 114 % of control
- T/C (dose: 20.0 mg/kg/injection, schedule: Q#A X014 (ip), vehicle: methylcellulose (MC)): 26 % of control and 90 % of control
- T/C (dose: 30.0 mg/kg/injection, schedule: Q#A X014 (ip), vehicle: methylcellulose (MC)): 29 % of control and 104 % of control

SMILES: CCCCCCCCCCCCCCCCCC1=NC(C)CC(C)(C)O1 (stereo unspecified)
- T/C (dose: 83.0 mg/kg/injection, schedule: Q#A X014 (ip), vehicle: saline): 58 % of control and 103 % of control
- T/C (dose: 125.0 mg/kg/injection, schedule: Q#A X014 (ip), vehicle: saline): 61 % of control and 102 % of control

SMILES: CN(C)[C@@H]1C(=O)C(C(=O)NCNC(CO)(CO)CO)=C(O)[C@@]2(O)C(=O)C3=C(O)c4c(O)cccc4[C@@](C)(O)[C@H]3C[C@@H]12
- T/C (dose: 320.0 mg/kg/injection, schedule: Q01DX007 (ip), vehicle: other): 24 % of control and 52 % of control

SMILES: CC(=O)[C@@]1(O)CC[C@H]2[C@@H]3C[C@H](C)C4=CC(=O)C=C[C@]4(C)[C@@]3(F)[C@@H](O)C[C@@]21C
- T/C (dose: 55.0 mg/kg/injection, schedule: Q01DX007 (sc), vehicle: steriod suspending solution): 43 % of control and 71 % of control
- T/C (dose: 93.75 mg/kg/injection, schedule: Q#A X014 (sc), vehicle: steriod suspending solution): 36 % of control and 68 % of control
- T/C (dose: 200.0 mg/kg/injection, schedule: Q01DX007 (sc), vehicle: steriod suspending solution): 17 % of control and 61 % of control

SMILES: CN1CCc2cc3c(cc2C(=O)Cc2ccc4c(c2C1)OCO4)OCO3
- T/C (dose: 12.5 mg/kg/injection, schedule: Q01DX007 (ip), vehicle: saline): 67 % of control and 97 % of control

SMILES: CC[C@H](c1ccc(O)cc1)[C@@H](CC)c1ccc(O)cc1
- T/C (dose: 31.0 mg/kg/injection, schedule: Q01DX007 (sc), vehicle: steriod suspending solution): 20 % of control and 68 % of control

SMILES: CC(=O)[C@H]1[C@H](C)C[C@H]2[C@@H]3CCC4=CC(=O)CC[C@]4(C)[C@@]3(F)[C@@H](O)C[C@@]21C
- T/C (dose: 83.3 mg/kg/injection, schedule: Q#A X014 (sc), vehicle: steriod suspending solution): 20 % of control, 39 % of control, 93 % of control
- T/C (dose: 125.0 mg/kg/injection, schedule: Q#A X014 (sc), vehicle: steriod suspending solution): 27 % of control, 30 % of control, 71 % of control

SMILES: CC1=C2C(=C[C@@](C)(CO)[C@@H]2O)C(=O)[C@](C)(O)C12CC2
- T/C (dose: 0.2 mg/kg/injection, schedule: Q01DX007 (ip), vehicle: saline): 66 % of control and 108 % of control
- T/C (dose: 0.4 mg/kg/injection, schedule: Q01DX007 (ip), vehicle: saline): 68 % of control and 100 % of control

SMILES: CC1C[C@@H]2[C@H]([C@@H](O)C[C@@]3(C)[C@H]2CC[C@]3(O)C(=O)CF)[C@@]2(C)CCC(=O)C=C12 (stereo partly specified)
- T/C (dose: 140.5 mg/kg/injection, schedule: Q#A X014 (sc), vehicle: steriod suspending solution): 30 % of control, 41 % of control, 57 % of control

SMILES: O=c1[nH]cc(F)c(=O)[nH]1
- T/C (dose: 4.7 mg/kg/injection, schedule: Q01DX007 (ip), vehicle: carboxymethylcellulose (CMC)): 66 % of control and 116 % of control
- T/C (dose: 9.5 mg/kg/injection, schedule: Q01DX007 (ip), vehicle: carboxymethylcellulose (CMC)): 44 % of control and 98 % of control

SMILES: COC1N(C2CC(O)C(CO)O2)C(=O)NC(=O)C1(F)Br (stereo unspecified)
- T/C (dose: 33.0 mg/kg/injection, schedule: Q01DX007 (ip), vehicle: saline): 48 % of control and 90 % of control
- T/C (dose: 50.0 mg/kg/injection, schedule: Q01DX007 (ip), vehicle: saline): 37 % of control and 67 % of control

SMILES: O=C(O)C(=O)O.[U]
- T/C (dose: 12.0 mg/kg/injection, schedule: Q01DX007 (ip), vehicle: saline): 35 % of control and 63 % of control

SMILES: C=CCCCCCCCCC(=O)O
- T/C (dose: 62.5 mg/kg/injection, schedule: Q01DX007 (ip), vehicle: saline): 79 % of control and 120 % of control

SMILES: c1ccc2cc3c(cc2c1)Cn1c-3nc2ccccc21
- T/C (dose: 100.0 mg/kg/injection, schedule: Q01DX007 (ip), vehicle: carboxymethylcellulose (CMC)): 48 % of control and 81 % of control
- T/C (dose: 220.0 mg/kg/injection, schedule: Q01DX007 (ip), vehicle: carboxymethylcellulose (CMC)): 32 % of control and 63 % of control
- T/C (dose: 330.0 mg/kg/injection, schedule: Q01DX007 (ip), vehicle: carboxymethylcellulose (CMC)): 19 % of control and 69 % of control
- T/C (dose: 750.0 mg/kg/injection, schedule: Q01DX007 (ip), vehicle: carboxymethylcellulose (CMC)): 20 % of control and 46 % of control

SMILES: O=C1C=CC(=Nc2ccc3c(c2)C(Br)c2ccccc2-3)O1 (stereo unspecified)
- T/C (dose: 25.0 mg/kg/injection, schedule: Q#A X014 (ip), vehicle: saline): 34 % of control and 80 % of control

SMILES: CCN(CC)P(=O)(N1CC1)N1CC1
- T/C (dose: 1.5 mg/kg/injection, schedule: Q#A X014 (ip), vehicle: saline): 47 % of control and 75 % of control
- T/C (dose: 2.0 mg/kg/injection, schedule: Q#A X014 (ip), vehicle: saline): 6 % of control and 76 % of control

SMILES: CC(C)CCCCCCCCCCCCC(=O)NCC(=O)NC1C(O)C(O)C(Nc2ncnc3nc[nH]c23)OC1C(O)CO (stereo unspecified)
- T/C (dose: 0.4 mg/kg/injection, schedule: Q01DX007 (ip), vehicle: carboxymethylcellulose (CMC)): 56 % of control and 107 % of control

SMILES: Brc1ccc(-c2csc(Nc3nc(-c4ccc(Br)cc4)cs3)n2)cc1
- T/C (dose: 450.0 mg/kg/injection, schedule: Q01DX007 (ip), vehicle: carboxymethylcellulose (CMC)): 15 % of control and 51 % of control

SMILES: O=C(c1ccccc1)C(C(=O)c1ccccc1)C(=O)c1ccccc1.O=C(c1ccccc1)C(C(=O)c1ccccc1)C(=O)c1ccccc1.[Cu]
- T/C (dose: 125.0 mg/kg/injection, schedule: Q01DX007 (ip), vehicle: carboxymethylcellulose (CMC)): 39 % of control, 80 % of control, 107 % of control

SMILES: O=C(CCCl)N1CCN(C(=O)CCCl)CC1
- T/C (dose: 111.0 mg/kg/injection, schedule: Q#A X014 (ip), vehicle: methylcellulose (MC)): 63 % of control, 81 % of control, 94 % of control

SMILES: O=c1[nH]c(=O)n(C2CC(O)C(CO)O2)cc1F (stereo unspecified)
- T/C (dose: 64.0 mg/kg/injection, schedule: Q01DX007 (ip), vehicle: carboxymethylcellulose (CMC)): 14 % of control and 40 % of control

SMILES: O=C(O)c1cc(I)cc(I)c1O.OC1CCCC2CCC[N-]C12.[Cu+]
- T/C (dose: 1.0 mg/kg/injection, schedule: Q01DX007 (ip), vehicle: carboxymethylcellulose (CMC)): 47 % of control and 96 % of control
- T/C (dose: 2.0 mg/kg/injection, schedule: Q01DX007 (ip), vehicle: carboxymethylcellulose (CMC)): 50 % of control and 76 % of control
- T/C (dose: 4.0 mg/kg/injection, schedule: Q01DX007 (ip), vehicle: carboxymethylcellulose (CMC)): 51 % of control and 90 % of control

SMILES: O=C(O)C(O)C(F)(F)F (stereo unspecified)
- T/C (dose: 31.25 mg/kg/injection, schedule: Q#A X014 (ip), vehicle: saline): 80 % of control and 108 % of control

SMILES: CC(C)(S)C(N)C(=O)O (stereo unspecified)
- T/C (dose: 250.0 mg/kg/injection, schedule: Q01DX007 (oral), vehicle: saline): 122 % of control and 159 % of control

SMILES: ClCc1c2ccccc2c(CCl)c2ccccc12
- T/C (dose: 4.0 mg/kg/injection, schedule: Q01DX007 (ip), vehicle: saline): 44 % of control and 103 % of control
- T/C (dose: 6.0 mg/kg/injection, schedule: Q01DX007 (ip), vehicle: saline): 52 % of control and 109 % of control

SMILES: Cc1cc(C)c(N)c(C)c1N
- T/C (dose: 55.5 mg/kg/injection, schedule: Q#A X014 (ip), vehicle: methylcellulose (MC)): 44 % of control, 66 % of control, 104 % of control
- T/C (dose: 83.0 mg/kg/injection, schedule: Q#A X014 (ip), vehicle: methylcellulose (MC)): 62 % of control, 77 % of control, 88 % of control
- T/C (dose: 125.0 mg/kg/injection, schedule: Q#A X014 (ip), vehicle: methylcellulose (MC)): 22 % of control, 57 % of control, 110 % of control

SMILES: Cc1ccc(N=NN(C)C)cc1
- T/C (dose: 16.65 mg/kg/injection, schedule: Q#A X014 (ip), vehicle: methylcellulose (MC)): 50 % of control and 77 % of control
- T/C (dose: 25.0 mg/kg/injection, schedule: Q#A X014 (ip), vehicle: methylcellulose (MC)): 48 % of control and 99 % of control
- T/C (dose: 37.5 mg/kg/injection, schedule: Q#A X014 (ip), vehicle: methylcellulose (MC)): 35 % of control and 83 % of control

SMILES: CCCCCCCCCCCCCCCCCCNC(=S)N/N=C/c1ccc(Cl)cc1Cl
- T/C (dose: 97.5 mg/kg/injection, schedule: Q#A X014 (ip), vehicle: methylcellulose (MC)): 35 % of control and 91 % of control

SMILES: [Cl][Pt+2]([Cl])([Cl])[Cl].[Na+].[S-]c1ncnc2nc[nH]c12.[S-]c1ncnc2nc[nH]c12
- T/C (dose: 33.5 mg/kg/injection, schedule: Q#A X014 (ip), vehicle: methylcellulose (MC)): 33 % of control and 62 % of control

SMILES: CC(=O)OCC(=O)[C@@]1(O)CC[C@H]2[C@@H]3C[C@H](C)C4=CC(=O)C=C[C@]4(C)[C@H]3[C@@H](O)C[C@@]21C
- T/C (dose: 5.0 mg/kg/injection, schedule: Q01DX007 (sc), vehicle: steriod suspending solution): 73 % of control and 118 % of control
- T/C (dose: 17.0 mg/kg/injection, schedule: Q01DX007 (sc), vehicle: steriod suspending solution): 35 % of control and 95 % of control
